PMC9911399, “Two distinct binding modes provide the RNA-binding protein RbFox with extraordinary sequence specificity”
Residue numbers refer to the chain shown, from its start. This is one part of the list.

T1: RBFOX1 RRM (Homo sapiens, UniProt Q9NWB1 109-208)
T1 sequence: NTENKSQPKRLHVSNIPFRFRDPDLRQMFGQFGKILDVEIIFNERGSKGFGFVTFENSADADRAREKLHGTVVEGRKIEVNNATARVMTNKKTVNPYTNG

B1: CGUCGGU (DNA:RNA)
RNA: GGGAGACCGGAAUUCAGAUUGUCCCGUCGGUUUAAAUCCCGUCGUAGCCACCA
DNA 1: CAATCTGAATTCCGGTCTCCC
DNA 2: TGGTGGCTACGACGGGATT
B2: GAAACAU (DNA:RNA)
RNA: B1 RNA with C25G, G26A, U27A, C28A, G29C, G30A
DNA 1: CAATCTGAATTCCGGTCTCCC
DNA 2: TGGTGGCTACGACGGGATT
B3: UUAUGCA (DNA:RNA)
RNA: B1 RNA with C25U, G26U, U27A, C28U, G30C, U31A
DNA 1: CAATCTGAATTCCGGTCTCCC
DNA 2: TGGTGGCTACGACGGGATT
B4: GGAUCGU (DNA:RNA)
RNA: B1 RNA with C25G, U27A, C28U, G29C
DNA 1: CAATCTGAATTCCGGTCTCCC
DNA 2: TGGTGGCTACGACGGGATT
B5: AUUAAUA (DNA:RNA)
RNA: B1 RNA with C25A, G26U, C28A, G29A, G30U, U31A
DNA 1: CAATCTGAATTCCGGTCTCCC
DNA 2: TGGTGGCTACGACGGGATT
B6: UCACGAG (DNA:RNA)
RNA: B1 RNA with C25U, G26C, U27A, G30A, U31G
DNA 1: CAATCTGAATTCCGGTCTCCC
DNA 2: TGGTGGCTACGACGGGATT
B7: UCGCUGC (DNA:RNA)
RNA: B1 RNA with C25U, G26C, U27G, G29U, U31C
DNA 1: CAATCTGAATTCCGGTCTCCC
DNA 2: TGGTGGCTACGACGGGATT
B8: AAUAGAG (DNA:RNA)
RNA: B1 RNA with C25A, G26A, C28A, G30A, U31G
DNA 1: CAATCTGAATTCCGGTCTCCC
DNA 2: TGGTGGCTACGACGGGATT
B9: CUAUUUU (DNA:RNA)
RNA: B1 RNA with G26U, U27A, C28U, G29U, G30U
DNA 1: CAATCTGAATTCCGGTCTCCC
DNA 2: TGGTGGCTACGACGGGATT
B10: AACCAGC (DNA:RNA)
RNA: B1 RNA with C25A, G26A, U27C, G29A, U31C
DNA 1: CAATCTGAATTCCGGTCTCCC
DNA 2: TGGTGGCTACGACGGGATT
B11: CUAGAAU (DNA:RNA)
RNA: B1 RNA with G26U, U27A, C28G, G29A, G30A
DNA 1: CAATCTGAATTCCGGTCTCCC
DNA 2: TGGTGGCTACGACGGGATT
B12: CGCAUUC (DNA:RNA)
RNA: B1 RNA with U27C, C28A, G29U, G30U, U31C
DNA 1: CAATCTGAATTCCGGTCTCCC
DNA 2: TGGTGGCTACGACGGGATT
B13: GAUUUUG (DNA:RNA)
RNA: B1 RNA with C25G, G26A, C28U, G29U, G30U, U31G
DNA 1: CAATCTGAATTCCGGTCTCCC
DNA 2: TGGTGGCTACGACGGGATT
B14: UAUUGCU (DNA:RNA)
RNA: B1 RNA with C25U, G26A, C28U, G30C
DNA 1: CAATCTGAATTCCGGTCTCCC
DNA 2: TGGTGGCTACGACGGGATT
B15: UCCUUUU (DNA:RNA)
RNA: B1 RNA with C25U, G26C, U27C, C28U, G29U, G30U
DNA 1: CAATCTGAATTCCGGTCTCCC
DNA 2: TGGTGGCTACGACGGGATT
B16: GCGGGAU (DNA:RNA)
RNA: B1 RNA with C25G, G26C, U27G, C28G, G30A
DNA 1: CAATCTGAATTCCGGTCTCCC
DNA 2: TGGTGGCTACGACGGGATT
B17: CGGCUUC (DNA:RNA)
RNA: B1 RNA with U27G, G29U, G30U, U31C
DNA 1: CAATCTGAATTCCGGTCTCCC
DNA 2: TGGTGGCTACGACGGGATT
B18: GCAUGAA (DNA:RNA)
RNA: B1 RNA with C25G, G26C, U27A, C28U, G30A, U31A
DNA 1: CAATCTGAATTCCGGTCTCCC
DNA 2: TGGTGGCTACGACGGGATT
B19: GCUAACA (DNA:RNA)
RNA: B1 RNA with C25G, G26C, C28A, G29A, G30C, U31A
DNA 1: CAATCTGAATTCCGGTCTCCC
DNA 2: TGGTGGCTACGACGGGATT
B20: GAACUCA (DNA:RNA)
RNA: B1 RNA with C25G, G26A, U27A, G29U, G30C, U31A
DNA 1: CAATCTGAATTCCGGTCTCCC
DNA 2: TGGTGGCTACGACGGGATT
B21: CUAGUUU (DNA:RNA)
RNA: B1 RNA with G26U, U27A, C28G, G29U, G30U
DNA 1: CAATCTGAATTCCGGTCTCCC
DNA 2: TGGTGGCTACGACGGGATT
B22: CAGUGAC (DNA:RNA)
RNA: B1 RNA with G26A, U27G, C28U, G30A, U31C
DNA 1: CAATCTGAATTCCGGTCTCCC
DNA 2: TGGTGGCTACGACGGGATT
B23: AGUGCCU (DNA:RNA)
RNA: B1 RNA with C25A, C28G, G29C, G30C
DNA 1: CAATCTGAATTCCGGTCTCCC
DNA 2: TGGTGGCTACGACGGGATT
B24: AGUAUUA (DNA:RNA)
RNA: B1 RNA with C25A, C28A, G29U, G30U, U31A
DNA 1: CAATCTGAATTCCGGTCTCCC
DNA 2: TGGTGGCTACGACGGGATT
B25: AUAACCU (DNA:RNA)
RNA: B1 RNA with C25A, G26U, U27A, C28A, G29C, G30C
DNA 1: CAATCTGAATTCCGGTCTCCC
DNA 2: TGGTGGCTACGACGGGATT
B26: UGUAGAA (DNA:RNA)
RNA: B1 RNA with C25U, C28A, G30A, U31A
DNA 1: CAATCTGAATTCCGGTCTCCC
DNA 2: TGGTGGCTACGACGGGATT
B27: CAUACGA (DNA:RNA)
RNA: B1 RNA with G26A, C28A, G29C, U31A
DNA 1: CAATCTGAATTCCGGTCTCCC
DNA 2: TGGTGGCTACGACGGGATT
B28: AGGUAAG (DNA:RNA)
RNA: B1 RNA with C25A, U27G, C28U, G29A, G30A, U31G
DNA 1: CAATCTGAATTCCGGTCTCCC
DNA 2: TGGTGGCTACGACGGGATT
B29: GGCUCUG (DNA:RNA)
RNA: B1 RNA with C25G, U27C, C28U, G29C, G30U, U31G
DNA 1: CAATCTGAATTCCGGTCTCCC
DNA 2: TGGTGGCTACGACGGGATT
B30: UACGUGC (DNA:RNA)
RNA: B1 RNA with C25U, G26A, U27C, C28G, G29U, U31C
DNA 1: CAATCTGAATTCCGGTCTCCC
DNA 2: TGGTGGCTACGACGGGATT
B31: UUGCAGC (DNA:RNA)
RNA: B1 RNA with C25U, G26U, U27G, G29A, U31C
DNA 1: CAATCTGAATTCCGGTCTCCC
DNA 2: TGGTGGCTACGACGGGATT

biological target: T1, RBFOX1 RRM; experiment: EMSA; HiTS-Eq, 1 nM pool, 10 min; buffer printed only for the single-RNA assays: 10 mM Tris pH 7.5, 150 mM NaCl, 3.4 mM EDTA, 0.001% NP-40, 30 C; conditions: tags: His6 N-terminal (pET28a); label: 5' 32P
Procedure, shortened: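 Purified wild-type or mutant RbFox RRM at increasing concentrations was equilibrated with 1 nM of 5′-radiolabelled RNA carrying 7 randomized nucleotides for 10 min in 50 µL. Unbound RNA was separated by 8% native PAGE and sequenced. Relative association constants came from read-count changes of each RNA species compared with the control reaction, normalised to the cognate motif.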

| Binder | binding signal |
| --- | --- |
| B1 | 0.0152 KA relative to UGCAUGU |
| B2 | 0.0042 KA relative to UGCAUGU |
| B3 | 0.0183 KA relative to UGCAUGU |
| B4 | 0.0112 KA relative to UGCAUGU |
| B5 | 0.00218 KA relative to UGCAUGU |
| B6 | 0.0108 KA relative to UGCAUGU |
| B7 | 0.0198 KA relative to UGCAUGU |
| B8 | 0.00685 KA relative to UGCAUGU |
| B9 | 0.00632 KA relative to UGCAUGU |
| B10 | 0.000821 KA relative to UGCAUGU |
| B11 | 0.00687 KA relative to UGCAUGU |
| B12 | 0.0132 KA relative to UGCAUGU |
| B13 | 0.0202 KA relative to UGCAUGU |
| B14 | 0.0153 KA relative to UGCAUGU |
| B15 | 0.0102 KA relative to UGCAUGU |
| B16 | 0.0486 KA relative to UGCAUGU |

| Binder | binding signal |
| --- | --- |
| B17 | 0.0146 KA relative to UGCAUGU |
| B18 | 0.594 KA relative to UGCAUGU |
| B19 | 0.00537 KA relative to UGCAUGU |
| B20 | 0.00414 KA relative to UGCAUGU |
| B21 | 0.0103 KA relative to UGCAUGU |
| B22 | 0.00375 KA relative to UGCAUGU |
| B23 | 0.0094 KA relative to UGCAUGU |
| B24 | 0.00298 KA relative to UGCAUGU |
| B25 | 0.00153 KA relative to UGCAUGU |
| B26 | 0.0196 KA relative to UGCAUGU |
| B27 | 0.0051 KA relative to UGCAUGU |
| B28 | 0.0109 KA relative to UGCAUGU |
| B29 | 0.0188 KA relative to UGCAUGU |
| B30 | 0.0234 KA relative to UGCAUGU |
| B31 | 0.0161 KA relative to UGCAUGU |
